Laboratory results published in publication PMC12820563, “FoxP3 forms a head-to-head dimer in vivo and stabilizes its multimerization on adjacent microsatellites”.
The list shows a part of the results.

target: T1, MBP-FoxP1dN (Mus musculus, UniProt P58462 326-579); test: PD-seq (MBP pull-down with sequencing); 20 mM Tris-HCl pH 7.5, 100 mM NaCl, 1.5 mM MgCl2, 0.4 uM protein, 0.1 uM dsDNA library, 30 min, room temperature, amylose pull-down; high values mean tight binding; settings: protein: recombinant; tags: His6-MBP; chain copies: 2; dsDNA, one strand shown
T1 sequence: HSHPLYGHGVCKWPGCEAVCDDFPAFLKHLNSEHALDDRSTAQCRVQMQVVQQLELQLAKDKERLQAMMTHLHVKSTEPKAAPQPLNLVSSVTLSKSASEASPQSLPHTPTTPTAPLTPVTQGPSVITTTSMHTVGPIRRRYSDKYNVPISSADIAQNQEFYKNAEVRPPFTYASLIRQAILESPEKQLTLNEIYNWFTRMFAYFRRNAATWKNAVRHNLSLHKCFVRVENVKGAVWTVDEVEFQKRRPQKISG
How it was run: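 Protein and DNA were mixed at 0.4 µM and 0.1 µM and held for 30 min at room temperature in Tris pH 7.5 buffer with NaCl and MgCl2; the protein was a His6-MBP-tagged, N-terminally truncated mouse FoxP3 or FoxP1 fragment from E. coli, and the DNA a Klenow-filled double-stranded degenerate library. Amylose resin captured the complexes, which were washed three times. Binding is read as reads-per-million enrichment of pull-down versus input after Illumina sequencing, with replicates pooled.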

| Sequence | binding signal |
| --- | --- |
| GATGATTGTTCTCCCAGCTGATGAATTTTCTAGCTCGAGTAAACAAATTTTCCTAATCTTTCTGTTCAAGCGCCATCTAC | 0.887 RPM ratio (pull-down/input) |
| GATGATTGTTCTCCCAGCTGATGAATTGTTCCGGTCGAGTAAACAAATTTTCCTAATCTTTCTGTTCAAGCGCCATCTAC | 0.988 RPM ratio (pull-down/input) |
| GATGATTGTTCTCCCAGCTGATGAATTCACGGTTTCGAGTAAACAAATTTTCCTAATCTTTCTGTTCAAGCGCCATCTAC | 0.93 RPM ratio (pull-down/input) |
| GATGATTGTTCTCCCAGCTGATGAATTTGACTGCTCGAGTAAACAAATTTTCCTAATCTTTCTGTTCAAGCGCCATCTAC | 0.762 RPM ratio (pull-down/input) |
| GATGATTGTTCTCCCAGCTGATGAATTCTATGGCTCGAGTAAACAAATTTTCCTAATCTTTCTGTTCAAGCGCCATCTAC | 0.788 RPM ratio (pull-down/input) |
| GATGATTGTTCTCCCAGCTGATGAATTAAAGGGTTCGAGTAAACAAATTTTCCTAATCTTTCTGTTCAAGCGCCATCTAC | 0.829 RPM ratio (pull-down/input) |
| GATGATTGTTCTCCCAGCTGATGAATTACCGTGATCGAGTAAACAAATTTTCCTAATCTTTCTGTTCAAGCGCCATCTAC | 0.939 RPM ratio (pull-down/input) |
| GATGATTGTTCTCCCAGCTGATGAATTGCTGGCCTCGAGTAAACAAATTTTCCTAATCTTTCTGTTCAAGCGCCATCTAC | 0.89 RPM ratio (pull-down/input) |
| GATGATTGTTCTCCCAGCTGATGAATTATATCCATCGAGTAAACAAATTTTCCTAATCTTTCTGTTCAAGCGCCATCTAC | 1.02 RPM ratio (pull-down/input) |
| GATGATTGTTCTCCCAGCTGATGAATTTTCACCTTCGAGTAAACAAATTTTCCTAATCTTTCTGTTCAAGCGCCATCTAC | 0.852 RPM ratio (pull-down/input) |
| GATGATTGTTCTCCCAGCTGATGAATTCGTTCGTTCGAGTAAACAAATTTTCCTAATCTTTCTGTTCAAGCGCCATCTAC | 0.843 RPM ratio (pull-down/input) |
| GATGATTGTTCTCCCAGCTGATGAATTCGTACTCTCGAGTAAACAAATTTTCCTAATCTTTCTGTTCAAGCGCCATCTAC | 0.778 RPM ratio (pull-down/input) |
| GATGATTGTTCTCCCAGCTGATGAATTGCTAGCATCGAGTAAACAAATTTTCCTAATCTTTCTGTTCAAGCGCCATCTAC | 1.2 RPM ratio (pull-down/input) |
| GATGATTGTTCTCCCAGCTGATGAATTAACTGCTTCGAGTAAACAAATTTTCCTAATCTTTCTGTTCAAGCGCCATCTAC | 0.912 RPM ratio (pull-down/input) |
| GATGATTGTTCTCCCAGCTGATGAATTTCTTCACTCGAGTAAACAAATTTTCCTAATCTTTCTGTTCAAGCGCCATCTAC | 0.868 RPM ratio (pull-down/input) |
| GATGATTGTTCTCCCAGCTGATGAATTTAAGTGTTCGAGTAAACAAATTTTCCTAATCTTTCTGTTCAAGCGCCATCTAC | 1.04 RPM ratio (pull-down/input) |

| Sequence | binding signal |
| --- | --- |
| GATGATTGTTCTCCCAGCTGATGAATTGTGTGCTTCGAGTAAACAAATTTTCCTAATCTTTCTGTTCAAGCGCCATCTAC | 1.16 RPM ratio (pull-down/input) |
| GATGATTGTTCTCCCAGCTGATGAATTCGTAGGCTCGAGTAAACAAATTTTCCTAATCTTTCTGTTCAAGCGCCATCTAC | 0.748 RPM ratio (pull-down/input) |
| GATGATTGTTCTCCCAGCTGATGAATTAGGCTTATCGAGTAAACAAATTTTCCTAATCTTTCTGTTCAAGCGCCATCTAC | 0.935 RPM ratio (pull-down/input) |
| GATGATTGTTCTCCCAGCTGATGAATTATCATAATCGAGTAAACAAATTTTCCTAATCTTTCTGTTCAAGCGCCATCTAC | 1.37 RPM ratio (pull-down/input) |
| GATGATTGTTCTCCCAGCTGATGAATTACACTAATCGAGTAAACAAATTTTCCTAATCTTTCTGTTCAAGCGCCATCTAC | 1.39 RPM ratio (pull-down/input) |
| GATGATTGTTCTCCCAGCTGATGAATTACGACCTTCGAGTAAACAAATTTTCCTAATCTTTCTGTTCAAGCGCCATCTAC | 1.1 RPM ratio (pull-down/input) |
| GATGATTGTTCTCCCAGCTGATGAATTGAACGGATCGAGTAAACAAATTTTCCTAATCTTTCTGTTCAAGCGCCATCTAC | 0.799 RPM ratio (pull-down/input) |
| GATGATTGTTCTCCCAGCTGATGAATTACAGGGGTCGAGTAAACAAATTTTCCTAATCTTTCTGTTCAAGCGCCATCTAC | 0.898 RPM ratio (pull-down/input) |
| GATGATTGTTCTCCCAGCTGATGAATTGTTTGATTCGAGTAAACAAATTTTCCTAATCTTTCTGTTCAAGCGCCATCTAC | 1.33 RPM ratio (pull-down/input) |
| GATGATTGTTCTCCCAGCTGATGAATTAATTCCTTCGAGTAAACAAATTTTCCTAATCTTTCTGTTCAAGCGCCATCTAC | 0.955 RPM ratio (pull-down/input) |
| GATGATTGTTCTCCCAGCTGATGAATTTTCCACTTCGAGTAAACAAATTTTCCTAATCTTTCTGTTCAAGCGCCATCTAC | 0.903 RPM ratio (pull-down/input) |
| GATGATTGTTCTCCCAGCTGATGAATTGCGGTCGTCGAGTAAACAAATTTTCCTAATCTTTCTGTTCAAGCGCCATCTAC | 0.951 RPM ratio (pull-down/input) |
| GATGATTGTTCTCCCAGCTGATGAATTCCTGAATTCGAGTAAACAAATTTTCCTAATCTTTCTGTTCAAGCGCCATCTAC | 0.913 RPM ratio (pull-down/input) |
| GATGATTGTTCTCCCAGCTGATGAATTTTCCACGTCGAGTAAACAAATTTTCCTAATCTTTCTGTTCAAGCGCCATCTAC | 0.889 RPM ratio (pull-down/input) |
| GATGATTGTTCTCCCAGCTGATGAATTAACATGATCGAGTAAACAAATTTTCCTAATCTTTCTGTTCAAGCGCCATCTAC | 0.921 RPM ratio (pull-down/input) |
| GATGATTGTTCTCCCAGCTGATGAATTTTGCATATCGAGTAAACAAATTTTCCTAATCTTTCTGTTCAAGCGCCATCTAC | 1.16 RPM ratio (pull-down/input) |
